From the supplement of paper PMC12217912
This is one part of the list. The full chains were built here from the parent and the listed change. Inactive controls read about 0.05.

B1: TEV protease; numbered along this chain (parent)
chain: MGESLFKGPRDYNPISSSICHLTNESDGHTTSLYGIGFGPFIITNKHLFRRNNGTLVVQSLHGVFKVKDTTTLQQHLVDGRDMIIIRMPKDFPPFPQKLKFREPQREERICLVTTNFQTKSMSSMVSDTSCTFPSGDGIFWKHWIQTKDGQCGSPLVSTRDGFIVGIHSASNFTNTNNYFTSVPKNFMELLTNQEAQQWVSGWRLNADSVLWGGHKVFMVKPEEPFQPVKEATQL

Variants of: B1
Test: raw area under fraction-flipped curve 0-4 h after induction (AUC4h, not background-subtracted), DNA-recorder readout of cleavage of the substrate (dimensionless); higher = more cleavage of the substrate by the protease variant
Settings: temperature: 34 °C; time window: 0-4 h after rhamnose induction
Description: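 In vivo DNA recorder in E. coli TOP10(DE3) ΔrhaA at 34 °C. Each TEVp single-site mutant (parent TEVp 0) is paired with a single-site variant of the 7-mer TEVs (canonical ENLYFQ|S). The substrate sits between flexible linkers in a Bxb1-sfGFP-TEVs-SsrA fusion, so cleavage stabilises Bxb1 and speeds flipping of a recombination array, read by NGS. The value is the raw area under the fraction-flipped curve over 0-4 h after rhamnose induction (AUC4h), with ≥20 reads per time point. It is not background-subtracted; inactive controls average about 0.047.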
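Note: Bxb1 expression induced with 0.2% (w/v) L-rhamnose at OD600 near 0.5, cultures sampled hourly, flipped fraction per protease–substrate barcode pair counted by paired-end Illumina sequencing.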

| Variant | area with substrate ENLYCQS | area with substrate ENLYDQS | area with substrate ENLYEQS | area with substrate ENLYGQS | area with substrate ENLYHQS | area with substrate ENLYIQS | area with substrate ENLYKQS | area with substrate ENLYNQS | area with substrate ENLYPQS | area with substrate ENLYQQS | area with substrate ENLYRQS | area with substrate ENLYSQS | area with substrate ENLYTQS | area with substrate ENLYWQS | area with substrate ENLYYQS | area with substrate ENLYMQS | area with substrate ENLYVQS | area with substrate ENLYLQS | area with substrate ENLYAQS |
| --- | --- | --- | --- | --- | --- | --- | --- | --- | --- | --- | --- | --- | --- | --- | --- | --- | --- | --- | --- |
| P89W | 0.0574 | 0.0446 | 0.0557 | 0.047 | 0.0447 | 0.0709 | 0.0511 | 0.057 | 0.0529 | 0.0446 | 0.0475 | 0.0376 | 0.0518 | 0.0506 | 0.0387 |  |  |  |  |
| R81G | 0.0774 | 0.0571 | 0.0569 | 0.0717 | 0.0585 | 0.0983 |  | 0.0652 |  | 0.07 | 0.0529 |  | 0.0648 | 0.0608 | 0.0595 | 0.0589 | 0.0871 |  |  |
| S158H | 0.0551 | 0.0632 | 0.0584 | 0.0503 | 0.0631 | 0.0567 | 0.0302 | 0.046 | 0.0461 |  | 0.0559 |  |  |  |  | 0.0637 | 0.0468 | 0.0465 |  |
| N52S | 0.0663 | 0.0665 | 0.0724 |  | 0.0648 | 0.083 | 0.0521 | 0.0576 |  | 0.0669 | 0.064 | 0.0657 |  | 0.0392 | 0.0707 | 0.0688 |  | 0.0629 |  |
| N52Y | 0.0676 | 0.0804 | 0.0522 | 0.041 | 0.07 | 0.0805 | 0.0676 | 0.0856 | 0.0629 | 0.0563 | 0.0802 |  | 0.0595 |  | 0.0517 | 0.0664 | 0.0867 |  |  |
| N52I | 0.0483 | 0.0491 |  |  |  | 0.0844 |  |  |  | 0.0604 |  |  |  |  |  |  |  |  |  |
| N52F | 0.0559 | 0.0569 | 0.063 | 0.0651 | 0.059 | 0.0768 | 0.0643 |  | 0.062 | 0.0666 | 0.0666 | 0.0645 | 0.0543 | 0.0538 | 0.0772 | 0.059 | 0.0625 |  |  |
| T44Q | 0.038 | 0.0538 | 0.0378 | 0.0307 | 0.0441 |  | 0.0458 | 0.0488 |  | 0.0526 |  | 0.0515 |  | 0.0425 | 0.0598 | 0.0411 | 0.0439 |  |  |
| M188C | 0.0943 | 0.0567 | 0.0789 | 0.0622 |  |  |  | 0.0577 | 0.0791 |  | 0.0489 |  |  |  |  |  | 0.12 |  |  |
| S18F | 0.078 | 0.0585 | 0.094 | 0.0614 | 0.0728 | 0.0852 | 0.0494 | 0.0514 | 0.0731 | 0.0567 | 0.0572 | 0.0641 | 0.0779 | 0.0816 | 0.0815 | 0.0794 | 0.0894 | 0.0893 |  |
| G202N | 0.054 |  | 0.0661 |  |  |  |  | 0.0665 |  | 0.061 | 0.0574 | 0.0454 |  |  | 0.0616 | 0.0762 | 0.0762 | 0.0792 |  |
| I164L | 0.0794 | 0.0652 | 0.0542 | 0.058 | 0.068 | 0.118 | 0.0618 | 0.0629 | 0.0543 | 0.0607 | 0.0186 | 0.0809 | 0.0728 | 0.0676 | 0.0683 | 0.071 | 0.0979 | 0.078 |  |
| S121A | 0.0892 |  |  |  | 0.0676 | 0.11 | 0.0664 |  | 0.0654 |  |  |  | 0.0646 |  |  | 0.0675 | 0.113 |  |  |
| I145C |  | 0.0719 | 0.0748 | 0.071 | 0.0575 |  | 0.075 | 0.0773 | 0.0737 | 0.0618 | 0.0668 | 0.108 | 0.105 | 0.129 | 0.0692 | 0.0993 | 0.186 |  | 0.0746 |
| P222V | 0.0861 | 0.0643 | 0.0597 | 0.0607 | 0.0586 | 0.101 | 0.0478 | 0.0645 | 0.0692 | 0.0647 | 0.0593 | 0.0573 | 0.066 | 0.0754 | 0.0769 |  |  |  |  |
| P222M | 0.0902 | 0.0467 | 0.0595 | 0.0622 | 0.0636 |  | 0.0621 | 0.0735 |  |  |  | 0.0826 | 0.0917 | 0.0695 | 0.0619 | 0.0703 | 0.103 |  |  |
| T159Y | 0.0571 | 0.0589 | 0.062 | 0.0608 |  | 0.106 | 0.0522 | 0.0687 | 0.0766 |  |  | 0.0766 | 0.0759 | 0.0749 | 0.0816 | 0.0954 | 0.118 | 0.0961 |  |
| T159E | 0.071 | 0.065 | 0.0674 | 0.0627 | 0.0592 |  |  | 0.0584 | 0.0711 |  | 0.0553 | 0.0825 |  | 0.0774 |  |  | 0.105 |  |  |
| T159G | 0.107 |  | 0.0728 | 0.0791 | 0.0642 | 0.134 | 0.0514 | 0.0732 | 0.0765 |  | 0.0634 |  |  | 0.0934 | 0.064 |  | 0.0944 | 0.0859 |  |
| P94Q | 0.0633 | 0.0604 | 0.0646 | 0.062 | 0.0633 | 0.104 | 0.0604 | 0.0591 | 0.0766 | 0.0659 | 0.0645 | 0.0788 | 0.0677 | 0.0782 |  | 0.0922 | 0.1 |  |  |
| Q74D | 0.0813 | 0.0536 | 0.0649 | 0.0592 | 0.0738 | 0.155 | 0.0545 |  | 0.0755 | 0.0736 | 0.0579 | 0.0736 |  | 0.0852 |  | 0.084 | 0.117 |  |  |
| G28M | 0.0737 | 0.0585 | 0.0588 | 0.06 | 0.0507 | 0.0863 | 0.0696 | 0.0709 | 0.0582 |  | 0.0605 | 0.0607 |  |  |  | 0.0672 | 0.0829 | 0.068 |  |
| E224P |  | 0.0498 | 0.0812 | 0.0653 | 0.0839 | 0.123 | 0.0512 | 0.0654 | 0.0782 | 0.0548 | 0.059 | 0.071 | 0.0735 | 0.0542 |  |  | 0.105 |  | 0.0822 |
| T192P |  | 0.0605 | 0.0664 | 0.0562 | 0.0643 | 0.0709 | 0.0624 | 0.0626 | 0.0642 | 0.0749 |  | 0.0563 |  | 0.0485 | 0.044 | 0.0551 | 0.0323 | 0.0559 | 0.0701 |
| G214M | 0.06 | 0.055 | 0.0477 | 0.0554 | 0.0561 |  | 0.0812 |  |  |  | 0.06 |  | 0.0503 |  |  | 0.0572 | 0.108 |  |  |
| T23Q | 0.0776 | 0.0554 | 0.0672 |  | 0.0668 | 0.128 |  | 0.0702 | 0.0359 | 0.05 | 0.0497 | 0.0621 |  | 0.0758 | 0.0623 | 0.0628 | 0.107 | 0.0621 |  |
